Substitutions are numbered along the chain they refer to; changes in the protein carry UniProt numbers. The list shows a part of the results.
T1: RBFOX1 RRM (Homo sapiens, UniProt Q9NWB1 109-208)
T1 sequence: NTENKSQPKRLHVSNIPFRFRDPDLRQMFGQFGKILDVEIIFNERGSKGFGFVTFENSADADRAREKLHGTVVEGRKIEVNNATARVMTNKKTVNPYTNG

B1: CGCUGUG (DNA:RNA)
RNA: GGGAGACCGGAAUUCAGAUUGUCCCGCUGUGUUAAAUCCCGUCGUAGCCACCA
DNA 1: CAATCTGAATTCCGGTCTCCC
DNA 2: TGGTGGCTACGACGGGATT
B2: UUCGACC (DNA:RNA)
RNA: B1 RNA with C25U, G26U, U28G, G29A, U30C, G31C
DNA 1: CAATCTGAATTCCGGTCTCCC
DNA 2: TGGTGGCTACGACGGGATT
B3: GCCUGCU (DNA:RNA)
RNA: B1 RNA with C25G, G26C, U30C, G31U
DNA 1: CAATCTGAATTCCGGTCTCCC
DNA 2: TGGTGGCTACGACGGGATT
B4: UUCUUCC (DNA:RNA)
RNA: B1 RNA with C25U, G26U, G29U, U30C, G31C
DNA 1: CAATCTGAATTCCGGTCTCCC
DNA 2: TGGTGGCTACGACGGGATT
B5: UUGCUAC (DNA:RNA)
RNA: GGGAGACCGGAAUUCAGAUUGUCCUUGCUACUUAAAUCCCGUCGUAGCCACCA
DNA 1: CAATCTGAATTCCGGTCTCCC
DNA 2: TGGTGGCTACGACGGGATT
B6: UAUCCCU (DNA:RNA)
RNA: B5 RNA with U26A, G27U, U29C, A30C, C31U
DNA 1: CAATCTGAATTCCGGTCTCCC
DNA 2: TGGTGGCTACGACGGGATT
B7: AAGAUCC (DNA:RNA)
RNA: B5 RNA with U25A, U26A, C28A, A30C
DNA 1: CAATCTGAATTCCGGTCTCCC
DNA 2: TGGTGGCTACGACGGGATT
B8: GUACGAG (DNA:RNA)
RNA: B5 RNA with U25G, G27A, U29G, C31G
DNA 1: CAATCTGAATTCCGGTCTCCC
DNA 2: TGGTGGCTACGACGGGATT
B9: GACUAAU (DNA:RNA)
RNA: B1 RNA with C25G, G26A, G29A, U30A, G31U
DNA 1: CAATCTGAATTCCGGTCTCCC
DNA 2: TGGTGGCTACGACGGGATT
B10: CUAGAUG (DNA:RNA)
RNA: B1 RNA with G26U, C27A, U28G, G29A
DNA 1: CAATCTGAATTCCGGTCTCCC
DNA 2: TGGTGGCTACGACGGGATT
B11: CUUCCCU (DNA:RNA)
RNA: B5 RNA with U25C, G27U, U29C, A30C, C31U
DNA 1: CAATCTGAATTCCGGTCTCCC
DNA 2: TGGTGGCTACGACGGGATT
B12: ACAUAAC (DNA:RNA)
RNA: B5 RNA with U25A, U26C, G27A, C28U, U29A
DNA 1: CAATCTGAATTCCGGTCTCCC
DNA 2: TGGTGGCTACGACGGGATT
B13: CCUGUCA (DNA:RNA)
RNA: B1 RNA with G26C, C27U, U28G, G29U, U30C, G31A
DNA 1: CAATCTGAATTCCGGTCTCCC
DNA 2: TGGTGGCTACGACGGGATT
B14: CAUUGCA (DNA:RNA)
RNA: B1 RNA with G26A, C27U, U30C, G31A
DNA 1: CAATCTGAATTCCGGTCTCCC
DNA 2: TGGTGGCTACGACGGGATT
B15: CGUAGGC (DNA:RNA)
RNA: B1 RNA with C27U, U28A, U30G, G31C
DNA 1: CAATCTGAATTCCGGTCTCCC
DNA 2: TGGTGGCTACGACGGGATT
B16: UUGUGUC (DNA:RNA)
RNA: B5 RNA with C28U, U29G, A30U
DNA 1: CAATCTGAATTCCGGTCTCCC
DNA 2: TGGTGGCTACGACGGGATT
B17: CACUGUA (DNA:RNA)
RNA: B1 RNA with G26A, G31A
DNA 1: CAATCTGAATTCCGGTCTCCC
DNA 2: TGGTGGCTACGACGGGATT
B18: CUACUCC (DNA:RNA)
RNA: B5 RNA with U25C, G27A, A30C
DNA 1: CAATCTGAATTCCGGTCTCCC
DNA 2: TGGTGGCTACGACGGGATT
B19: UAGGGUA (DNA:RNA)
RNA: B1 RNA with C25U, G26A, C27G, U28G, G31A
DNA 1: CAATCTGAATTCCGGTCTCCC
DNA 2: TGGTGGCTACGACGGGATT
B20: CGUGUAC (DNA:RNA)
RNA: B5 RNA with U25C, U26G, G27U, C28G
DNA 1: CAATCTGAATTCCGGTCTCCC
DNA 2: TGGTGGCTACGACGGGATT
B21: AUCUUUU (DNA:RNA)
RNA: B1 RNA with C25A, G26U, G29U, G31U
DNA 1: CAATCTGAATTCCGGTCTCCC
DNA 2: TGGTGGCTACGACGGGATT
B22: UGUGGCU (DNA:RNA)
RNA: B1 RNA with C25U, C27U, U28G, U30C, G31U
DNA 1: CAATCTGAATTCCGGTCTCCC
DNA 2: TGGTGGCTACGACGGGATT
B23: GCUCCGU (DNA:RNA)
RNA: B5 RNA with U25G, U26C, G27U, U29C, A30G, C31U
DNA 1: CAATCTGAATTCCGGTCTCCC
DNA 2: TGGTGGCTACGACGGGATT
B24: GGCAGAA (DNA:RNA)
RNA: B1 RNA with C25G, U28A, U30A, G31A
DNA 1: CAATCTGAATTCCGGTCTCCC
DNA 2: TGGTGGCTACGACGGGATT
B25: AGCAGAC (DNA:RNA)
RNA: B1 RNA with C25A, U28A, U30A, G31C
DNA 1: CAATCTGAATTCCGGTCTCCC
DNA 2: TGGTGGCTACGACGGGATT
B26: UGAUUAC (DNA:RNA)
RNA: B5 RNA with U26G, G27A, C28U
DNA 1: CAATCTGAATTCCGGTCTCCC
DNA 2: TGGTGGCTACGACGGGATT
B27: GGAAACU (DNA:RNA)
RNA: B1 RNA with C25G, C27A, U28A, G29A, U30C, G31U
DNA 1: CAATCTGAATTCCGGTCTCCC
DNA 2: TGGTGGCTACGACGGGATT
B28: GCAUGUU (DNA:RNA)
RNA: B1 RNA with C25G, G26C, C27A, G31U
DNA 1: CAATCTGAATTCCGGTCTCCC
DNA 2: TGGTGGCTACGACGGGATT
B29: UACUCGG (DNA:RNA)
RNA: B1 RNA with C25U, G26A, G29C, U30G
DNA 1: CAATCTGAATTCCGGTCTCCC
DNA 2: TGGTGGCTACGACGGGATT
B30: AAGUGCC (DNA:RNA)
RNA: B1 RNA with C25A, G26A, C27G, U30C, G31C
DNA 1: CAATCTGAATTCCGGTCTCCC
DNA 2: TGGTGGCTACGACGGGATT
B31: GAGCCCG (DNA:RNA)
RNA: B5 RNA with U25G, U26A, U29C, A30C, C31G
DNA 1: CAATCTGAATTCCGGTCTCCC
DNA 2: TGGTGGCTACGACGGGATT

The binders below were run against T1, RBFOX1 RRM (assay: EMSA; HiTS-Eq, 1 nM pool, 10 min; buffer printed only for the single-RNA assays: 10 mM Tris pH 7.5, 150 mM NaCl, 3.4 mM EDTA, 0.001% NP-40, 30 C). Settings: tags: His6 N-terminal (pET28a); label: 5' 32P.
Method in brief: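 Relative association constants, normalised to the cognate motif, were derived by comparing read counts of each RNA species with those of the control reaction. The RNA sequenced was the free fraction, separated by 8% native PAGE after a 10 min equilibration in 50 µL of 1 nM 5′-radiolabelled RNA (7 randomized nucleotides) with increasing concentrations of purified wild-type or mutant RbFox RRM.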

First: B1
Second: B2
The binding signal of the first is higher: 0.0206 KA relative to UGCAUGU for the first, 0.00679 KA relative to UGCAUGU for the second.

Compared with B3, B4 is lower in binding signal: 0.0359 KA relative to UGCAUGU for the first, 0.00881 KA relative to UGCAUGU for the second.

First: B5
Second: B6
The binding signal of the first is higher: 0.015 KA relative to UGCAUGU for the first, 0.00105 KA relative to UGCAUGU for the second.

First: B7
Second: B8
The binding signal of the first is lower: 0.00408 KA relative to UGCAUGU for the first, 0.0101 KA relative to UGCAUGU for the second.

First: B9
Second: B10
The binding signal of the first is lower: 0.00799 KA relative to UGCAUGU for the first, 0.0103 KA relative to UGCAUGU for the second.

Compared with B11, B12 is lower in binding signal: 0.00488 KA relative to UGCAUGU for the first, 0.00142 KA relative to UGCAUGU for the second.

Compared with B13, B14 is higher in binding signal: 0.00585 KA relative to UGCAUGU for the first, 0.00927 KA relative to UGCAUGU for the second.

Compared with B15, B16 is higher in binding signal: 0.0114 KA relative to UGCAUGU for the first, 0.0254 KA relative to UGCAUGU for the second.

First: B17
Second: B18
The binding signal of the first is lower: 0.00253 KA relative to UGCAUGU for the first, 0.00512 KA relative to UGCAUGU for the second.

First: B19
Second: B20
The binding signal of the first is higher: 0.0162 KA relative to UGCAUGU for the first, 0.00932 KA relative to UGCAUGU for the second.

First: B21
Second: B22
The binding signal of the first is lower: 0.00764 KA relative to UGCAUGU for the first, 0.0283 KA relative to UGCAUGU for the second.

Compared with B23, B24 is higher in binding signal: 0.00637 KA relative to UGCAUGU for the first, 0.0103 KA relative to UGCAUGU for the second.

First: B25
Second: B26
The binding signal of the first is lower: 0.00935 KA relative to UGCAUGU for the first, 0.0139 KA relative to UGCAUGU for the second.

First: B27
Second: B28
The binding signal of the first is lower: 0.00773 KA relative to UGCAUGU for the first, 0.635 KA relative to UGCAUGU for the second.

Compared with B29, B30 is higher in binding signal: 0.00949 KA relative to UGCAUGU for the first, 0.0108 KA relative to UGCAUGU for the second.

For B31, the binding signal was 0.0175 KA relative to UGCAUGU.

Reference: paper PMC9911399, “Two distinct binding modes provide the RNA-binding protein RbFox with extraordinary sequence specificity”
